Measured values published in the supplement of paper PMC8728848.
This is one part of the list.

Experiments:
Test in all cases: glycan array binding signal (z-score within array); higher = stronger binding
Conditions in all cases: glycan notation: IUPAC condensed, linker removed; mutation: F63H
[1] = molecular target: Neu5Ac(a2-3)Gal(b1-3)]Neu5Ac(a2-3)Gal(b1-4)]GlcNAc
In short: (§1)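 Negative Z-scores can be read as non-binding. The Z-score is calculated within each array and then averaged across arrays of one protein sequence at different concentrations or buffers and across linkers. Arrays, 3228 in all, were curated from the Consortium for Functional Glycomics database and kept only where the protein sequence was available.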

[2] = molecular target: Neu5Ac(a2-3)Gal(b1-4)Glc
In short: as §1

[3] = molecular target: Neu5Ac(a2-3)Gal(b1-4)GlcNAc
In short: as §1

[4] = molecular target: Neu5Ac(a2-3)Gal(b1-4)GlcNAc(b1-2)Man
In short: as §1

[5] = molecular target: Neu5Ac(a2-3)Gal(b1-4)GlcNAc(b1-2)Man(a1-3)[GlcNAc(b1-4)][Neu5Ac(a2-3)Gal(b1-4)GlcNAc(b1-2)Man(a1-6)]Man(b1-4)GlcNAc(b1-4)GlcNAc
In short: as §1

[6] = molecular target: Neu5Ac(a2-3)Gal(b1-4)GlcNAc(b1-2)Man(a1-3)[Neu5Ac(a2-3)Gal(b1-4)GlcNAc(b1-2)Man(a1-6)]Man(b1-4)GlcNAc(b1-4)GlcNAc
In short: as §1

[7] = molecular target: Neu5Ac(a2-3)Gal(b1-4)GlcNAc(b1-2)Man(a1-3)[Neu5Ac(a2-3)Gal(b1-4)GlcNAc(b1-2)Man(a1-6)]Man(b1-4)GlcNAc(b1-4)[Fuc(a1-6)]GlcNAc
In short: as §1

[8] = molecular target: Neu5Ac(a2-3)Gal(b1-4)GlcNAc(b1-2)Man(a1-3)[Neu5Ac(a2-6)Gal(b1-4)GlcNAc(b1-2)Man(a1-6)]Man(b1-4)GlcNAc(b1-4)GlcNAc
In short: as §1

[9] = molecular target: Neu5Ac(a2-3)Gal(b1-4)GlcNAc(b1-2)[Neu5Ac(a2-3)Gal(b1-4)GlcNAc(b1-4)]Man(a1-3)[GlcNAc(b1-4)][Neu5Ac(a2-3)Gal(b1-4)GlcNAc(b1-2)[Neu5Ac(a2-3)Gal(b1-4)GlcNAc(b1-6)]Man(a1-6)]Man(b1-4)GlcNAc(b1-4)GlcNAc
In short: as §1

[10] = molecular target: Neu5Ac(a2-3)Gal(b1-4)GlcNAc(b1-2)[Neu5Ac(a2-3)Gal(b1-4)GlcNAc(b1-4)]Man(a1-3)[GlcNAc(b1-4)][Neu5Ac(a2-3)Gal(b1-4)GlcNAc(b1-4)Man(a1-6)]Man(b1-4)GlcNAc(b1-4)GlcNAc
In short: as §1

[11] = molecular target: Neu5Ac(a2-3)Gal(b1-4)GlcNAc(b1-2)[Neu5Ac(a2-3)Gal(b1-4)GlcNAc(b1-6)]Man(a1-6)[Neu5Ac(a2-3)Gal(b1-4)GlcNAc(b1-2)Man(a1-3)][GlcNAc(b1-4)]Man(b1-4)GlcNAc(b1-4)GlcNAc
In short: as §1

[12] = molecular target: Neu5Ac(a2-3)Gal(b1-4)GlcNAc(b1-3)Gal
In short: as §1

[13] = molecular target: Neu5Ac(a2-3)Gal(b1-4)GlcNAc(b1-3)Gal(b1-3)GlcNAc
In short: as §1

[14] = molecular target: Neu5Ac(a2-3)Gal(b1-4)GlcNAc(b1-3)Gal(b1-4)GlcNAc
In short: as §1

[15] = molecular target: Neu5Ac(a2-3)Gal(b1-4)GlcNAc(b1-3)Gal(b1-4)GlcNAc(b1-2)Man(a1-3)[Neu5Ac(a2-3)Gal(b1-4)GlcNAc(b1-3)Gal(b1-4)GlcNAc(b1-2)Man(a1-6)]Man(b1-4)GlcNAc(b1-4)GlcNAc
In short: as §1

[16] = molecular target: Neu5Ac(a2-3)Gal(b1-4)GlcNAc(b1-3)Gal(b1-4)GlcNAc(b1-3)Gal(b1-4)GlcNAc
In short: as §1

[17] = molecular target: Neu5Ac(a2-3)Gal(b1-4)GlcNAc(b1-3)Gal(b1-4)GlcNAc(b1-3)Gal(b1-4)GlcNAc(b1-2)Man(a1-3)[Neu5Ac(a2-3)Gal(b1-4)GlcNAc(b1-3)Gal(b1-4)GlcNAc(b1-3)Gal(b1-4)GlcNAc(b1-2)Man(a1-6)]GalNAc
In short: as §1

[18] = molecular target: Neu5Ac(a2-3)Gal(b1-4)GlcNAc(b1-3)Gal(b1-4)GlcNAc(b1-3)GalNAc
In short: as §1

[19] = molecular target: Neu5Ac(a2-3)Gal(b1-4)GlcNAc(b1-3)Gal(b1-4)GlcNAc(b1-3)[Neu5Ac(a2-3)Gal(b1-4)GlcNAc(b1-3)Gal(b1-4)GlcNAc(b1-6)]GalNAc
In short: as §1

[20] = molecular target: Neu5Ac(a2-3)Gal(b1-4)GlcNAc(b1-3)Gal(b1-4)GlcNAc(b1-6)[Gal(b1-3)]GalNAc
In short: as §1

[21] = molecular target: Neu5Ac(a2-3)Gal(b1-4)GlcNAc(b1-3)Gal(b1-4)[Fuc(a1-3)]GlcNAc
In short: as §1

[22] = molecular target: Neu5Ac(a2-3)Gal(b1-4)GlcNAc(b1-3)GalNAc
In short: as §1

[23] = molecular target: Neu5Ac(a2-3)Gal(b1-4)GlcNAc(b1-3)[Neu5Ac(a2-3)Gal(b1-4)GlcNAc(b1-6)]GalNAc
In short: as §1

[24] = molecular target: Neu5Ac(a2-3)Gal(b1-4)GlcNAc(b1-6)GalNAc
In short: as §1

[25] = molecular target: Neu5Ac(a2-3)Gal(b1-4)GlcNAc(b1-6)[Gal(b1-3)]GalNAc
In short: as §1

[26] = molecular target: Neu5Ac(a2-3)Gal(b1-4)GlcNAc(b1-6)[Neu5Ac(a2-3)Gal(b1-3)]GalNAc
In short: as §1

[27] = molecular target: Neu5Ac(a2-3)Gal(b1-4)GlcNAc6S
In short: as §1

[28] = molecular target: Neu5Ac(a2-3)Gal(b1-4)[Fuc(a1-3)]GlcNAc
In short: as §1

[29] = molecular target: Neu5Ac(a2-3)Gal(b1-4)[Fuc(a1-3)]GlcNAc(b1-2)Man
In short: as §1

[30] = molecular target: Neu5Ac(a2-3)Gal(b1-4)[Fuc(a1-3)]GlcNAc(b1-3)Gal
In short: as §1

[31] = molecular target: Neu5Ac(a2-3)Gal(b1-4)[Fuc(a1-3)]GlcNAc(b1-3)Gal(b1-4)GlcNAc
In short: as §1

[32] = molecular target: Neu5Ac(a2-3)Gal(b1-4)[Fuc(a1-3)]GlcNAc(b1-3)Gal(b1-4)[Fuc(a1-3)]GlcNAc(b1-3)Gal(b1-4)[Fuc(a1-3)]GlcNAc
In short: as §1

[33] = molecular target: Neu5Ac(a2-3)Gal(b1-4)[Fuc(a1-3)]GlcNAc(b1-3)GalNAc
In short: as §1

[34] = molecular target: Neu5Ac(a2-3)Gal(b1-4)[Fuc(a1-3)]GlcNAc(b1-6)[Gal(b1-3)]GalNAc
In short: as §1

[35] = molecular target: Neu5Ac(a2-3)Gal(b1-4)[Fuc(a1-3)]GlcNAc(b1-6)[Neu5Ac(a2-3)Gal(b1-3)]GalNAc
In short: as §1

[36] = molecular target: Neu5Ac(a2-3)Gal(b1-4)[Fuc(a1-3)]GlcNAc6S
In short: as §1

[37] = molecular target: Neu5Ac(a2-3)Gal6S(b1-4)GlcNAc
In short: as §1

[38] = molecular target: Neu5Ac(a2-3)Gal6S(b1-4)[Fuc(a1-3)]GlcNAc
In short: as §1

B1: AAL (Agrocybe aegerita), Q6WY08 (protein)
chain: MQGVNIYNISAGTSVDLAAPVTTGDIVTFFSSALNLNAGAGNPNNTTLNLFAENGAYLLHIAHRLQENVIIFNSRQPDGPWLVEQRVSDVANQFAGIDGKAMVTVFDHGDKYQVVINEKTVIQYTKQISGLTLSLSYNATEETSIFSTVVEAVTYTGLALEHHHHHH
- glycan array binding signal (z-score) [1]: -0.055
- glycan array binding signal (z-score) [2]: 0
- glycan array binding signal (z-score) [3]: -0.078
- glycan array binding signal (z-score) [4]: 0.281
- glycan array binding signal (z-score) [5]: -0.295
- glycan array binding signal (z-score) [6]: -0.509
- glycan array binding signal (z-score) [7]: 0.307
- glycan array binding signal (z-score) [8]: -0.249
- glycan array binding signal (z-score) [9]: -0.209
- glycan array binding signal (z-score) [10]: -0.283
- glycan array binding signal (z-score) [11]: 1.54
- glycan array binding signal (z-score) [12]: -0.235
- glycan array binding signal (z-score) [13]: -0.405
- glycan array binding signal (z-score) [14]: -0.075
- glycan array binding signal (z-score) [15]: -0.334
- glycan array binding signal (z-score) [16]: -0.205
- glycan array binding signal (z-score) [17]: 0.545
- glycan array binding signal (z-score) [18]: -0.447
- glycan array binding signal (z-score) [19]: 0.028
- glycan array binding signal (z-score) [20]: -0.258
- glycan array binding signal (z-score) [21]: -0.032
- glycan array binding signal (z-score) [22]: -0.187
- glycan array binding signal (z-score) [23]: -0.144
- glycan array binding signal (z-score) [24]: -0.488
- glycan array binding signal (z-score) [25]: 0.404
- glycan array binding signal (z-score) [26]: -0.341
- glycan array binding signal (z-score) [27]: 0.021
- glycan array binding signal (z-score) [28]: -0.11
- glycan array binding signal (z-score) [29]: -0.001
- glycan array binding signal (z-score) [30]: 0.841
- glycan array binding signal (z-score) [31]: -0.467
- glycan array binding signal (z-score) [32]: 0.213
- glycan array binding signal (z-score) [33]: -0.214
- glycan array binding signal (z-score) [34]: -0.178
- glycan array binding signal (z-score) [35]: -0.139
- glycan array binding signal (z-score) [36]: -0.311
- glycan array binding signal (z-score) [37]: -0.264
- glycan array binding signal (z-score) [38]: -0.108
